About 50,000 (12%) of roughly 420,000 compounds were called active. Inconclusive results, whose numbers are uncertain, are shown with a selection of clear calls. Calls come from the whole dose curve; as a rule, active = well fitted inhibition curve with a large enough effect; inconclusive = small, poorly fitted or top-dose-only effect; inactive = flat fitted curve, though single readings scatter. Potencies of inconclusive entries are left out as doubtful fits.
assay: qHTS for Inhibitors of human tyrosyl-DNA phosphodiesterase 1 (TDP1): qHTS in cells in presence of CPT; conditions: chicken DT40 Tdp1-/-;hTDP1 cells + 20 nM CPT, ATP luminescence, 48 h; activity change, negative = growth inhibition: at 46.2 µM (top of the series); note: nearly all actives have a fitted effect of over 55% in size
Summary of the method: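 Chicken DT40 Tdp1-/- cells stably complemented with human TDP1 were seeded at 400 cells/well in medium containing 20 nM camptothecin, exposed to pin-transferred compounds, and grown at 37 °C for at least 48 hr. Viability was read as ATP luminescence.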
% is set by controls: 0 for no effect and ±100 for the full control effect; potency is the fitted concentration of half-maximal effect; tags give direction and shape of the fitted curve.

SMILES | Potency | activity change, negative = growth inhibition
CNC(=S)N/N=C/c1c(C)cccc1Cl | inconclusive [inhibitor, single point] | 
Cc1cccnc1NC(=O)c1c(O)c2ccccc2n(C)c1=O | inconclusive [inhibitor, single point] | 
C[C@@H]1CN([C@H](C)CO)C(=O)c2cc(NC(=O)Nc3ccc(F)cc3)ccc2O[C@@H](C)CCCCO[C@H]1CN(C)Cc1ccc(C(=O)O)cc1 |  | inactive: -0.277%
Fc1cccc(Nc2c3c(nc4ccccc24)CCC3)c1 | inconclusive [inhibitor, single point] | 
COc1ccc(N2CCN(C(=O)CN3C(=O)NC(c4ccc(OC)cc4)(c4ccc(OC)cc4)C3=O)CC2)cc1 | inconclusive [inhibitor, single point] | 
O=C(Nc1ccc(S(=O)(=O)N2CCCC2)cc1)C1COc2ccccc2O1 (stereo not drawn) | inconclusive [inhibitor, single point] | 
O=C(O)c1cc(-c2ccc(Cl)cc2)n(-c2cccc(Cl)c2)n1 | inconclusive [inhibitor, single point] | 
CCC1CN(C(=O)NCc2ccc(C)cc2)c2cc(Cl)ccc2O1 (stereo not drawn) | active: 20.6 µM | 
Cc1ccc(CNC(=O)C(=O)NCC2OCCN2C(=O)c2ccc(Cl)cc2)cc1 (stereo not drawn) | inconclusive [inhibitor, single point] | 
Cc1cc(N2CCOCC2)c2c(N)c(Br)cc(C)c2n1 | inconclusive [inhibitor, partial curve, poor fit] | 
CN(C)CC(O)COc1ccc(C(C)(C)c2ccc(OCC(O)CN(C)C)cc2)cc1 (stereo not drawn) | inconclusive [inhibitor, single point] | 
CC1(C)CC(=O)C(C=NCCN2CCN(C(=O)CCl)CC2)=C(O)C1 | inconclusive [inhibitor, single point] | 
S=c1[nH]nc(-c2ccc(Cl)cc2)n1-c1ccc2c(c1)OCCO2 | inconclusive [inhibitor, single point] | 
CC1CCCCC12NC(=O)N(CC(=O)N1CCN(C(=O)c3cccs3)CC1)C2=O (stereo not drawn) |  | inactive: 3.77%
CC[C@H](C)[C@H]1O[C@]2(CC[C@@H]1C)C[C@@H]1C[C@@H](C/C=C(\C)[C@@H](O[C@H]3C[C@H](OC)[C@@H](O[C@H]4C[C@H](OC)[C@@H](O)[C@H](C)O4)[C@H](C)O3)[C@@H](C)/C=C/C=C3\CO[C@@H]4[C@H](O)C(C)=C[C@@H](C(=O)O1)[C@]34O)O2 | active: 10.6 µM | 
C=COCCn1c(=N)n(CCC)c2ccccc21 | inconclusive [inhibitor, single point] | 
Cc1ccc2scc(N3CCc4ccccc4C3)c(=O)c2c1 | inconclusive [inhibitor, single point] | 
O=C(COc1ccccc1-c1ccccc1)NCCN1C(=O)S/C(=C\c2cccnc2)C1=O | active: 16.4 µM | 
N#Cc1c(-c2ccccc2)nc(SCC(=O)Nc2ccc(OC(F)(F)Cl)cc2)[nH]c1=O | inconclusive [inhibitor, single point] | 
COc1ccc(-n2nnnc2CNC(=O)C(=O)c2c[nH]c3ccccc23)cc1 | inconclusive [inhibitor, single point] | 
C=CCN1C=C2C(=O)C(C)(OC(=O)C3CCCC3)C(=O)C=C2C=C1c1ccsc1 (stereo not drawn) | inconclusive [inhibitor, single point] | 
CC(C)c1ccc(NC(=O)CN2C(=O)COc3ccc(S(=O)(=O)N4CCCCC4)cc32)cc1 | inconclusive [inhibitor, single point] | 

SMILES | Potency | activity change, negative = growth inhibition
CN(C)CCNC(=O)COc1ccc(C23CC4CC(CC(C4)C2)C3)cc1 | active: 25.9 µM | 
CCc1ccccc1NC(c1nnc(-c2cccc(F)c2)o1)c1ccc(F)cc1Cl (stereo not drawn) |  | inactive: -14%
Cn1cccc1-c1nc2ccc(NC(=O)c3cccs3)cc2[nH]1 | inconclusive [inhibitor, single point] | 
O=C(COc1ccc(Br)cc1F)Nc1nnc(C2CC2)s1 |  | inactive: 6.4%
Cc1nc(SCc2ccc(F)cc2)c2oc3ccccc3c2n1 |  | inactive: -1.64%
COc1cc(OC)cc(-c2nc3nc(C)c(CCC(=O)Nc4ccc(C)c(C)c4)c(C)n3n2)c1 |  | inactive: 11.3%
CC(=O)NC(c1ccc(C(C)C)cc1)c1c(O)ccc2ccccc12 (stereo not drawn) |  | inactive: -21%
O=C(Nc1nc2ccc3ccccc3c2s1)c1ccc(N2CCCCC2)c([N+](=O)[O-])c1 | inconclusive [inhibitor, partial curve] | 
CN(C)c1ccc(C(=O)C(O)c2ccccc2Cl)cc1 (stereo not drawn) |  | inactive: 4.78%
COc1cccc(NC(=O)c2cc(-c3ccccn3)nc3ccccc23)c1 | inconclusive [inhibitor, single point] | 
COc1ccccc1CN(CC(=O)NCc1ccco1)C(=O)CNS(=O)(=O)c1ccc(C)cc1 |  | inactive: -26.3%
Cc1sc2nc(CSc3ccccc3)nc(N3CCC(C(N)=O)CC3)c2c1C | inconclusive [inhibitor, single point] | 
CC1CN(c2ccccc2)C(=O)CS1 (stereo not drawn) |  | inactive: -0.967%
Cc1ccc(C)c(-n2c(C)cc(/C=N/NC(=O)c3c(C)nc4cc(C)ccn34)c2C)c1 | inconclusive [inhibitor, single point] | 
O=C(CSc1nnc(SCc2ccccc2)s1)NNC(=S)Nc1ccccc1 |  | inactive: -7.01%
Cc1cc(NC(=O)Nc2ccc(Cl)c(Cl)c2)no1 | inconclusive [inhibitor, single point] | 
O=C(CS(=O)(=O)c1ccccc1)Nc1nc(-c2ccc(F)cc2)cs1 | inconclusive [inhibitor, single point] | 
CC1CCCCN1S(=O)(=O)c1ccc(C(=O)Nc2nnc(-c3ccncc3)o2)cc1 (stereo not drawn) | inconclusive [inhibitor, single point] | 
COc1ccc(-c2nc(C#N)c(NC(C)C)o2)cc1 |  | inactive: -19%
CC(=O)c1ccccc1N(C(=O)c1ccco1)C(C(=O)NC1CCCC1)c1ccc(C)cc1 (stereo not drawn) |  | inactive: -10.1%
CC(=O)Nc1cccc(NC(=O)c2cc([N+](=O)[O-])ccc2N2CCCCC2)c1 | inconclusive [inhibitor, single point] | 
